Source: PubChem BioAssay AID2546 (National Center for Advancing Translational Sciences (NCATS), 2010)
Among all 310,000 compounds or so, about 11,000 (3.5%) were called active. The shares of active, inactive and inconclusive entries below differ from those in the screen. The call rests on the fitted dose curve; in most records, active means well fitted inhibition curve with a large enough effect; inconclusive means small, poorly fitted or top-dose-only effect, or effect the other way; inactive means flat fitted curve, though single readings scatter. Potencies of inconclusive entries are left out as doubtful fits. Some compounds were tested as several samples or in several runs, with calls that do not always agree.
On the % scale 0 is the no-effect control and ±100 the full control effect; potency means the concentration at half of the fitted maximal effect; tags describe the fitted curve by direction and shape.

Experiment: VP16 counterscreen qHTS for inhibitors of ROR gamma transcriptional activity;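 further: Gal4-VP16 expression switched on by copper sulfate through the metallothionein promoter; nearly all actives have a fitted effect of over 50% in size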
Conditions: Drosophila S2 Gal4-VP16 UAS-luciferase, luminescence, 20 h; activity, negative = inhibition: at 53.6 µM (top of the series)
For Cc1cccc(NC(=O)COC(=O)c2cccc3c2C(=O)c2ccccc2C3=O)c1C, the “activity, negative = inhibition” value was inactive: -14.9%. For CC(=O)OC1c2c(ccc3ccc(=O)oc23)OC(C)(C)C1OC(=O)CC(C)C (stereo not drawn), the Potency was inconclusive [inhibitor, single point]. With Cc1ccc(C)c(/C=N/NC(=S)NCCc2ccccc2)c1 the Potency was active: 7.94 µM. With Cc1ccc(Cn2ncc3c(N4CCN(Cc5ccc(Cl)cc5)CC4)ncnc32)cc1 the Potency was inconclusive [inhibitor, single point]. With COc1ccc(CNS(=O)(=O)NCc2ccc(C)cc2)cc1OC the Potency was inconclusive [inhibitor, single point]. With COc1ccccc1CNS(=O)(=O)c1ccc(-c2cnc(C3CC3)o2)cc1 the Potency was inconclusive [inhibitor, single point]. In the case of CCOC(=O)c1ccc(S(=O)(=O)Nc2nc3cc(S(=O)(=O)NC4=NCCCCC4)ccc3s2)cc1, the Potency is reported as inconclusive [inhibitor, single point]. For COc1ccc(CNc2cc(C)nc3ccc(OC)cc23)cc1, the “activity, negative = inhibition” value was inactive: 2.49%. With O=C(/C=C/c1cccs1)c1ccc(N2CCOCC2)cc1 the Potency was active: 14.1 µM. For Cn1ncc([N+](=O)[O-])c1C(=O)Nc1ccc(-c2nc3ccccc3[nH]2)cc1, the Potency was inconclusive [activator, single point]. In the case of Cc1ccc(C(=O)O/N=C(\c2ccccc2)c2cccnc2)cc1, the Potency is reported as inconclusive [inhibitor, single point]. For c1coc(CSc2ncnc3c2oc2ccccc23)c1, the Potency was inconclusive [activator, single point]. In the case of O=C(Nc1cccc(C(F)(F)F)c1)c1cc(-c2ccco2)on1, the “activity, negative = inhibition” value is reported as inactive: -3.13%. For COc1cc(/C=N/O)ccc1OCc1ccc(Cl)cc1, the Potency was inconclusive [inhibitor, partial curve]. For CC1=CC(C)(C)Nc2ccccc21, the Potency was inconclusive [inhibitor, single point]. With Cc1ccc(C(=O)NCCOc2ccc(Cl)cc2)cc1 the Potency was inconclusive [activator, single point]. With O=C(NC1CCCC1)c1ccc(S(=O)(=O)N2CCOCC2)cc1 the “activity, negative = inhibition” value was inactive: 1.49%. With c1ccc(Nc2nc(-c3cccs3)cs2)nc1 the Potency was inconclusive [inhibitor, single point]. For COc1ccccc1N1C(C)=CC(=C(C#N)c2nc3ccccc3s2)C=C1C, the Potency was inconclusive [inhibitor, full curve]. In the case of COCCn1c(C23CC4CC(CC(C4)C2)C3)n[nH]c1=S, the Potency is reported as active: 1.12 µM. In the case of Cc1cc(NC(=O)/C=C/c2ccccc2Cl)n(-c2nc3ccccc3[nH]2)n1, the Potency is reported as active: 1.26 µM. With Cc1cc(C)nc(NC(N)=NCCc2c[nH]c3ccccc23)n1 the Potency was inconclusive [inhibitor, single point]. For O=C(c1ccco1)N1CCN(c2ccc([N+](=O)[O-])cc2F)CC1, the Potency was inconclusive [activator, single point]. In the case of COCCC(=O)N1CCC(Oc2ccc(C(=O)NC3Cc4ccccc4C3)cc2)CC1, the “activity, negative = inhibition” value is reported as inactive: -3.77%. With CC[n+]1c(/C=C2/C=C(C)CC(C)C2)sc2ccccc21 (stereo not drawn) the “activity, negative = inhibition” value was inactive: -23.3%. In the case of COc1ccc(-c2cc(C(=O)N3CCCC3)no2)cc1, the Potency is reported as active: 10 µM. With CCNC(=S)/N=C(/Nc1ccc(OC)cc1)Nc1nc(C)cc(C)n1 the Potency was inconclusive [inhibitor, single point]. With O=c1c(/C=N/OCc2ccc(Cl)cc2Cl)c[nH]n1-c1cccc(Cl)n1 the Potency was active: 20 µM. For Cc1ccc(C2=Nc3ccccc3N=C(C(Cl)Cl)C2)cc1, the Potency was inconclusive [inhibitor, single point]. With CCOc1ccc2nc(NC(=O)CCC(=O)c3cccs3)sc2c1 the Potency was inconclusive [inhibitor, single point]. With Cc1cc(NC(=O)c2cc([N+](=O)[O-])cc([N+](=O)[O-])c2C)no1 the Potency was inconclusive [activator, single point]. For CC(CCc1ccccc1)NC(=O)CNc1cccc([N+](=O)[O-])c1 (stereo not drawn), the Potency was inconclusive [inhibitor, single point]. For CCOC(=O)N1CCN(S(=O)(=O)c2ccc(C(=O)NNc3nc4ccc(Cl)cc4s3)cc2)CC1, the Potency was inconclusive [inhibitor, single point]. For Cn1c(=O)c2c(-c3ccccc3)n(-n3cnnc3)cc2n(C)c1=O, the Potency was inconclusive [inhibitor, single point]. With Cc1ccc(CNC(=O)CC(C)S(=O)(=O)c2ccc3c(c2)NC(=O)CS3)o1 (stereo not drawn) the “activity, negative = inhibition” value was inactive: -2.03%. In the case of CC(=O)n1cc(N(C(=O)CCl)c2ccccc2)c2ccccc21, the Potency is reported as inconclusive [inhibitor, single point]. For CC(C)c1nc(SCC(=O)Nc2ccc3c(c2)OCCO3)c2c(=O)n(C)c(=O)n(C)c2n1, the “activity, negative = inhibition” value was inactive: -2.49%. For COc1ccc(NC(=O)n2ncc3c(C)cccc32)cc1, the Potency was active: 2.51 µM. For N#CC1=C2SCN(Cc3ccco3)CN2C(=O)CC1c1cccc2ccccc12 (stereo not drawn), the Potency was inconclusive [inhibitor, single point]. In the case of O=c1cc(/N=C/c2coc3c(ccc4ccccc43)c2=O)[nH]c(=S)[nH]1, the Potency is reported as inconclusive [inhibitor, single point]. For COc1cccc(/C(O)=C/c2nc3ccc(C(=O)NCCc4ccc(Cl)cc4)cc3[nH]c2=O)c1, the Potency was active: 14.1 µM. For O=C(O)c1cccc(N/N=C/c2cccs2)c1, the Potency was inconclusive [inhibitor, single point]. In the case of Oc1ccccc1C(Nc1nccs1)c1ccc2cccnc2c1O (stereo not drawn), the Potency is reported as active: 5.01 µM. For O=C(Nc1ccc(Cl)cc1)Nc1ccccc1C(=O)O, the Potency was active: 11.2 µM. With COc1ccc(Nc2nccc(-c3cccc(N)c3)n2)cc1 the Potency was inconclusive [inhibitor, single point]. For COc1cccc(Nc2ncc3nc(C)c(=O)n(-c4ccccc4)c3n2)c1, the “activity, negative = inhibition” value was inactive: -1.68%. With CNC(=O)N1CCC(C(=O)c2c(C)c(C)c(C)c(C)c2C)CC1 the “activity, negative = inhibition” value was inactive: -10.8%. In the case of CN1N=C(C(=O)NC2CCCc3c2cnn3-c2ccc(F)cc2F)CCC1=O (stereo not drawn), the Potency is reported as inconclusive [inhibitor, single point]. In the case of Cn1ncc2c(Nc3ccc4ccccc4c3)ncnc21, the “activity, negative = inhibition” value is reported as inactive: 17.9%. For Cc1ccc(N(Cc2cc(=O)[nH]c3ccccc23)C(=O)CCl)cc1, the Potency was inconclusive [inhibitor, single point]. With CN1CCc2cc3c(c4c2[C@H]1[C@H](O)c1ccccc1-4)OCO3 the “activity, negative = inhibition” value was inactive: -4.18%. With CC(C)c1ccc(/C=N/NC(=O)c2nnn(-c3nonc3N)c2CSC2=NCCS2)cc1 the Potency was inconclusive [inhibitor, single point]. For COc1cc([N+](=O)[O-])cc(/C=N/NC(=O)Cn2nc(C)cc2C)c1O, the Potency was inconclusive [inhibitor, single point]. In the case of NCCCC[C@H](NC(=O)[C@H](Cc1c[nH]c2ccccc12)NC(=O)[C@H](CC(=O)O)NC(=O)[C@H](Cc1cnc[nH]1)NC(=O)[C@H](CO)NC(=O)[C@H](Cc1c[nH]c2ccccc12)NC(=O)[C@H](Cc1cnc[nH]1)NC(=O)[C@@H]1CCC(=O)N1)C(=O)N1CCC[C@H]1C(=O)NCC(N)=O, the “activity, negative = inhibition” value is reported as inactive: -11.8%. In the case of COCCNC(=O)CN(C(=O)c1ccc(N2CCCC2)nc1)c1ccc(Cl)cc1, the “activity, negative = inhibition” value is reported as inactive: 5.96%. With CC(=O)N1CCC[C@@]2(CCN(Cc3nccs3)C2)C1 the “activity, negative = inhibition” value was inactive: 0.85%. In the case of Cc1csc(NC(=O)CCN2C(=O)c3ccccc3S2(=O)=O)n1, the Potency is reported as inconclusive [inhibitor, single point]. For N#C/C(=C\c1cc([N+](=O)[O-])ccc1Cl)C(N)=O, the “activity, negative = inhibition” value was inactive: -7.7%. With CCC(=O)NNc1nc2c(C)cc(C)cc2s1 the Potency was inconclusive [inhibitor, single point]. For CCOC(=O)c1c[nH]c2ccc3ccccc3c2c1=O, the “activity, negative = inhibition” value was inactive: -0.346%. With CCC1C/C(=C\c2cccnc2)C(=O)/C(=C/c2cccnc2)C1 (stereo not drawn) the Potency was active: 1.78 µM. With CCOc1ccccc1NC(=O)NCCc1c[nH]c2ccccc12 the “activity, negative = inhibition” value was inactive: 4.28%. With CN1C(=O)NC(c2ccccc2)C2=C1CN(CCc1ccccc1)C2=O (stereo not drawn) the “activity, negative = inhibition” value was inactive: -5.34%. For Cc1ccc(N(C(=O)CS(=O)CC(=O)Nc2ccc(F)cc2)C(C(=O)NC2CCCCC2)c2ccco2)cc1 (stereo not drawn), the Potency was inconclusive [inhibitor, partial curve]. With CCN1CCN(CCNC(=O)c2ccc3c(c2)N(Cc2ccc(F)cc2)C(=O)/C(=C/c2ccccc2)S3)CC1 the Potency was inconclusive [inhibitor, single point]. In the case of CC1(C)NC(=O)N(c2ccc([N+](=O)[O-])c(C(F)(F)F)c2)C1=O, the Potency is reported as active: 15.8 µM. For O=C(CC1C(=O)N(c2ccc(Cl)cc2)C(=S)N1CCc1ccncc1)Nc1ccc(F)cc1 (stereo not drawn), the Potency was inconclusive [inhibitor, single point]. With CNC(=S)NNc1nc(N2CCOCC2)nc(N2CCOCC2)n1 the “activity, negative = inhibition” value was inactive: -11.1%. In the case of Cc1ccc2nc(NS(=O)(=O)c3cn(C)nc3C)sc2c1, the Potency is reported as active: 11.2 µM. With Cc1cnc(SCCc2ccncc2)nc1C the Potency was inconclusive [inhibitor, single point]. With Cc1nc2ccccn2c1C(=O)NC1CCCc2ccccc21 (stereo not drawn) the Potency was active: 12.6 µM. With CN=c1scc(C)n1/N=C/c1ccc2c(c1)OCO2 the Potency was inconclusive [inhibitor, single point]. With Cc1ccc(N(C(=O)c2csnn2)C(C(=O)NCc2ccccc2)c2cccnc2)cc1 (stereo not drawn) the Potency was inconclusive [inhibitor, single point].
